From PubChem BioAssay AID720542 (National Center for Advancing Translational Sciences (NCATS), 2013)
Among all 360,000 compounds or so, about 740 (0.21%) were called active. The inconclusive results got no clear call from the source; some entries with a clear call stand among them for comparison. Calls follow the shape of the dose curve; as a rule, active = well fitted inhibition curve with a large enough effect; inconclusive = small, poorly fitted or top-dose-only effect; inactive = no such curve, though single readings can be large or run the other way. No potency is given beside an inconclusive call; the fits are too rough.
Also: nearly all actives have a fitted effect of over 45% in size.
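For activity change, negative = inhibition in this document: 0% = vehicle wells and -100% = peptide control.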
Potency is read from the fitted curve at half-maximal effect; tags tell the direction and shape of the fitted curve.

What follows are compounds tested on Plasmodium falciparum AMA1 (3D7) - RON2 peptide interaction (assay: qHTS for Inhibitors of AMA1-RON; Towards Development of Antimalarial Drug Lead: Primary Screen). Conditions: AlphaScreen AMA1-biotinylated RON2 peptide binding; activity change, negative = inhibition: at 58.2 µM (top of the series) unless noted.
Procedure, shortened: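 AMA1 (3D7) with his tag at 25 nM final met compounds first, then biotinylated RON2 peptide at 25 nM; detection used donor plus acceptor beads, 10 µg/mL apiece, read by AlphaScreen after 30 min at room temperature.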
With `C=CCn1c(C)cc(-c2csc(N)n2)c1C` the Potency was inconclusive [inhibitor, single point].
With `S=C(NCc1cccs1)Nc1cccc(Cl)c1` the “activity change, negative = inhibition” value was inactive: -0.442%.
For `CCOC(=O)CC1=NN(c2ccccc2)C(=O)/C1=C\c1ccc(N(C)C)cc1`, the activity change, negative = inhibition was inconclusive: -19.1% [inhibitor].
In the case of `COc1ccc(Cl)cc1NC(=S)NN1CCOCC1`, the Potency is reported as inconclusive [inhibitor, full curve, poor fit].
`Brc1ccc2ncnc(Nc3ccc(N4CCOCC4)cc3)c2c1` was tested, and the Potency was inconclusive [inhibitor, single point].
For `Cn1ccc2cc(NC(=O)Nc3cccnc3)ccc21`, the Potency was inconclusive [inhibitor, single point].
With `COc1ccccc1CNc1nc(NCc2ccc3occc3c2)c2sccc2n1` the Potency was inconclusive [inhibitor, partial curve].
In the case of `CC1CCN(c2oc(Cc3cccc4ccccc34)nc2C#N)CC1`, the Potency is reported as inconclusive [inhibitor, single point].
In the case of `CN1C(=O)NC(=O)/C(=C/c2ccc([N+](=O)[O-])o2)C1=O`, the Potency is reported as inconclusive [inhibitor, partial curve].
With `CN1C[C@@H]2C(c3ccc(C(F)(F)F)cc3)C3(c4cccnc4)CC2(C3)[C@H]1c1ccccc1` (some centres undefined) the Potency was inconclusive [inhibitor, single point].
For `NC(=O)c1ccsc1NC(=O)COC(=O)c1ccc(Cl)nc1`, the Potency was inconclusive [inhibitor, partial curve].
`O=C1NC(=S)S/C1=C\c1ccc(SCc2ccco2)o1` was tested, and the Potency was inconclusive [inhibitor, single point].
For `Cc1ccnc(SCc2cc(=O)c(OC(=O)c3cccs3)co2)n1`, the Potency was inconclusive [inhibitor, partial curve].
With `CCCS(=O)(=O)c1c(S(=O)(=O)CCC)c2cc(CC)ccn2c1C(=O)OC` the Potency was inconclusive [inhibitor, full curve, poor fit].
In the case of `OC(c1cccc(OCc2ccccc2)c1)c1nnc(-c2ccccc2)o1` (centres undefined), the activity change, negative = inhibition is reported as inconclusive: -39.6% [inhibitor].
In the case of `O=C(CSc1ccccc1)NCC(c1ccco1)N1CCCCC1` (centres undefined), the “activity change, negative = inhibition” value is reported as inactive: 16.7%.
In the case of `Cc1ccc(/C=N/N2CCCCC2)o1`, the “activity change, negative = inhibition” value is reported as inactive: 14.6%.
`CC(=O)c1ccc(N2CCN(CC(O)COCc3ccco3)CC2)cc1` (centres undefined) was tested, and the Potency was inconclusive [inhibitor, partial curve].
With `COc1ccc(CNc2ccc(C)c(C)c2)c(OC)c1OC` the Potency was inconclusive [inhibitor, single point].
For `Cc1ccccc1OCc1nnc(SCC(=O)Nc2ccc3nc(SCC(=O)Nc4ccccc4)sc3c2)n1C`, the Potency was inconclusive [inhibitor, partial curve].
With `CC(C)Oc1cccc(C(=O)NC(=S)Nc2ccc(Cl)c(C(=O)O)c2)c1` the “activity change, negative = inhibition” value was inactive: 55.5%.
With `CCOC(=O)C(C)(C)N(Cc1cccc(C)c1)S(=O)(=O)c1ccc(Cl)c([N+](=O)[O-])c1` the Potency was inconclusive [inhibitor, partial curve, poor fit].
`Cc1c(C(=O)Nc2nccs2)oc2ccc(Br)cc12` was tested, and the “activity change, negative = inhibition” value was inactive: 13.4%.
For `COC(=O)C1=CN(C(C)C)C=C(C(=O)OC)C1c1cccc(OC)c1`, the “activity change, negative = inhibition” value was inactive: 44.3%.
`O=C(NCCN1CCC(n2c(=O)[nH]c3ccccc32)CC1)c1ccc(F)cc1Cl` was tested, and the “activity change, negative = inhibition” value was inactive: -2.75%.
`CCC(Sc1nc2ccsc2c(=O)n1Cc1ccc(C(=O)O)cc1)C(=O)Nc1cc(Cl)ccc1C` (centres undefined) was tested, and the Potency was inconclusive [inhibitor, single point].
`CC(=O)Nc1ccc(Nc2cc(C)nc3ccccc23)cc1` was tested, and the “activity change, negative = inhibition” value was inactive: -3.49%.
In the case of `Fc1cccc(CSc2ccc3nnc(-c4ccccn4)n3n2)c1`, the Potency is reported as inconclusive [inhibitor, single point].
With `S=C(NCCc1ccccc1)N1CCN(Cc2ccccc2)CC1` the Potency was inconclusive [inhibitor, partial curve].
For `CC(C)COc1ccc(C(=O)Nc2cc(S(=O)(=O)N3CCOCC3)ccc2N2CCCC2)cc1`, the “activity change, negative = inhibition” value was inactive: -3.08%.
With `N#CC(C#N)=c1ccc2c(c1)NC1(CCCCC1)N=2` the Potency was active: 22.4 µM.
In the case of `C(=N\N1CCN(Cc2cccc3ccccc23)CC1)/c1ccco1`, the Potency is reported as inconclusive [inhibitor, single point].
With `C/C(=N\NC(=O)c1cc(C2CC2)nc2ccccc12)c1ccc(O)cc1O` the “activity change, negative = inhibition” value was inactive: 53.4%.
For `CCOC(=O)C1=C(C)N(CC(C)C)C(=O)/C1=C\c1cccs1`, the Potency was inconclusive [inhibitor, full curve, poor fit].
In the case of `Cc1nc(N2CCN(c3ccccn3)CC2)c2c(C)c(C(=O)N3CCN(c4ccc(F)cc4)CC3)sc2n1`, the Potency is reported as inconclusive [inhibitor, single point].
With `COCCNC(=O)c1nc2ccccc2s1` the Potency was inconclusive [inhibitor, single point].
`Brc1ccc(Oc2ncc(CN3CCN(c4ccccc4)CC3)s2)cc1` was tested, and the Potency was inconclusive [inhibitor, partial curve].
For `COc1ccc(N2CCN(c3cc(C)c4ccccc4n3)CC2)cc1`, the Potency was inconclusive [inhibitor, partial curve].
`Nc1ncnc2c1c(-c1ccc(Oc3ccccc3)cc1)cn2C1CCCC1` was tested, and the Potency was inconclusive [inhibitor, partial curve].
In the case of `COC(=O)c1ccccc1NC(=O)CN(c1ccccc1)S(=O)(=O)N(C)C`, the Potency is reported as inconclusive [inhibitor, single point].
`O=C(CNCc1ccc(Cl)cc1)Nc1ccc2c(c1)OCCO2` was tested, and the Potency was inconclusive [inhibitor, single point].
For `O=C(/C=C/c1ccco1)N1CCC(Cc2ccccc2)CC1`, the Potency was inconclusive [inhibitor, partial curve].
In the case of `CC[n+]1c(/C=C/C=C/c2ccc(N(C)C)cc2)sc2ccccc21`, the Potency is reported as active: 17.8 µM.
In the case of `CCN(CC)c1ccc(NC(=O)CSc2nc3ccccc3c(=O)n2-c2cc(S(=O)(=O)N(C)C)ccc2C)cc1`, the Potency is reported as inconclusive [inhibitor, full curve, poor fit].
In the case of `CCCn1c(SCC(=O)Nc2ccc(Cl)cc2)n[nH]c1=O`, the Potency is reported as inconclusive [inhibitor, single point].
With `Brc1cccc2sc(N3CCN(c4ccccc4)CC3)nc12` the Potency was inconclusive [inhibitor, full curve].
With `CCc1ccccc1OCC(=O)Nc1ccc(N2CCCC2)cc1C` the Potency was inconclusive [inhibitor, partial curve].
`Cn1nnnc1SCC(=O)c1ccc2c(c1)OCCO2` was tested, and the “activity change, negative = inhibition” value was inactive: -10.1%.
In the case of `COC(=O)c1ccccc1NC1=C/C(=N\S(=O)(=O)c2ccc(C(=O)O)cc2)c2ccccc2C1=O`, the Potency is reported as inconclusive [inhibitor, partial curve].
In the case of `CC1CCCCC1NC(=O)COC(=O)c1ccccn1` (centres undefined), the “activity change, negative = inhibition” value is reported as inactive: 0%.
In the case of `N#CC(=C1C=C(Br)C(=NO)C=C1Cl)c1ccc(Cl)cc1`, the Potency is reported as active: 20 µM.
For `Clc1ccccc1CN1CCN(c2ccccc2)CC1`, the Potency was inconclusive [inhibitor, single point].
For `c1ccc(-[n+]2nc(Nc3cccc4ccccc34)sc2-c2c3ccccc3cc3ccccc23)cc1`, the Potency was inconclusive [inhibitor, partial curve].
For `CCCN1CCc2cccc3c2[C@H]1Cc1ccc(O)c(O)c1-3`, the Potency was inconclusive [inhibitor, partial curve].
For `CCOCCOC(=O)c1[nH]c2c(c1C)C(=O)CC(c1ccc(N(C)C)cc1)C2` (centres undefined), the Potency was inconclusive [inhibitor, single point].
With `CC(=O)Nc1cccc(-c2ccnc3c2CC(C)(C(=O)NCc2ccc(N(C)C)cc2)O3)c1` (centres undefined) the Potency was inconclusive [inhibitor, partial curve].
For `COc1ccc(CN2CCc3c([nH]c4ccccc34)C2)c(OC)c1C`, the Potency was inconclusive [inhibitor, single point].
For `O=C(C1CCCN(Cc2ccc(Br)cc2)C1)N1CCCCC1` (centres undefined), the Potency was inconclusive [inhibitor, single point].
For `Brc1ccccc1CN1CCC(Cc2ccccc2)CC1`, the Potency was inconclusive [inhibitor, partial curve].
`COc1cc(Br)cc2cc(C(=O)OC3CCN(C)CC3)c(=O)oc12` was tested, and the Potency was inconclusive [inhibitor, single point].
`O=C1c2ccccc2-c2onc3ccc(N4CCCC4)c1c23` was tested, and the Potency was inconclusive [inhibitor, partial curve].
In the case of `C/C(=N/NC(=O)COc1cc(C)ccc1C(C)C)C(=O)O`, the Potency is reported as inconclusive [inhibitor, single point].
With `C=CCn1c(SCc2cc(C(C)=O)ccc2OCC)nc2ccccc2c1=O` the “activity change, negative = inhibition” value was inactive: -0.0235%.
`Cc1cc(C)c2cc(C#N)c(N3CCCN(S(=O)(=O)c4ccccc4)CC3)nc2c1` was tested, and the “activity change, negative = inhibition” value was inactive: -2.75%.
For `CCN(CC)S(=O)(=O)c1cc(C(=O)OCC(=O)Nc2cccc(S(=O)(=O)N(C)C)c2)ccc1F`, the “activity change, negative = inhibition” value was inactive: 9.27%.
With `CSc1ccc(CN2CCC(C)(Oc3ccccc3F)C2)cc1` (centres undefined) the Potency was inconclusive [inhibitor, single point].
For `C#CCONC(=O)c1cc(OCC(F)(F)F)ccc1OCC(F)(F)F`, the activity change, negative = inhibition was inconclusive: -9.46% [inhibitor].
`O=C(CCN1C(=O)/C(=C/c2cccs2)SC1=S)Nc1ccc(C(=O)O)c(O)c1` was tested, and the Potency was inconclusive [inhibitor, partial curve].
In the case of `CN(C)S(=O)(=O)c1cccc(C(=O)Nc2ccccc2[N+](=O)[O-])c1`, the Potency is reported as inconclusive [inhibitor, single point].
